The whole screen tested about 260,000 compounds, of which about 890 (0.34%) were called active. Inconclusive means that the source gave no clear call. Such entries were picked first, then a sample of the others. Calls follow the shape of the dose curve; as a rule, active = well fitted activation curve with a large enough effect; inconclusive = small, poorly fitted or top-dose-only effect; inactive = no such curve, though single readings can be large or run the other way. Potencies of inconclusive entries are doubtful fits and often do not repeat.
target: Pyruvate kinase PKM (Homo sapiens) (UniProt P14618); assay: qHTS Assay for Activators of Human Muscle isoform 2 Pyruvate Kinase; conditions: purified PKM2, Kinase-Glo ATP luminescence; Potency: activation; activation: at 57.5 µM (top of the series), 0% is enzyme alone, no compound; also: nearly all actives have a fitted effect of over 55% in size
Summary of the method: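 hPK-M2, >95% pure; 0.1 mM ADP / 0.5 mM PEP final; imidazole pH7.2 buffer w/ 7 mM MgCl2, 50 mM KCl; 1 h RT; Kinase-Glo lum. Intermediate enzyme activity for dual inhibitor/activator qHTS.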
% is scaled to controls: 0 for no effect and ±100 for the full control effect; potency is read from the fitted curve at half-maximal effect; tags tell the direction and shape of the fitted curve.

Chain of UniProt P14618 (P14618 whole entry, looked up, canonical isoform): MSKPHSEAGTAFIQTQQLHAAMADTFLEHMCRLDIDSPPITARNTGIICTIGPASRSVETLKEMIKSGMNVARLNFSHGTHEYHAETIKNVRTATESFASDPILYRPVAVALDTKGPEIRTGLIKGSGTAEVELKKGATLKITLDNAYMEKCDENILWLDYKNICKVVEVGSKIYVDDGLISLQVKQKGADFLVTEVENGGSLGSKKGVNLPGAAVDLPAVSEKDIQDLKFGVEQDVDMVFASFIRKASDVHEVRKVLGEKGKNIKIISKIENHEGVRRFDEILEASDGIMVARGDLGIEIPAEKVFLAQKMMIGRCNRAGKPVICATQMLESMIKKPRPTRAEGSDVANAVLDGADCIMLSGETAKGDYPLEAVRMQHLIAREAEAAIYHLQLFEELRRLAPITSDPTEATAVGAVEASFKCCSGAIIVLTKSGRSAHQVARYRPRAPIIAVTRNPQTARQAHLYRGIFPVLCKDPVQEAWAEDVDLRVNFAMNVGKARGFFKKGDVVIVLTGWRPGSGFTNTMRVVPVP

activation, inactive:
N#C/C(=C\c1ccc(-c2ccc(C(=O)O)cc2)o1)c1nc2ccccc2[nH]1 9.62%
CCn1c(O)c(N=NC(=O)CNC(=O)Cc2ccccc2)c2ccccc21 1.77% [at 0.46 µM, 0% is enzyme alone, no compound]
Cc1cccn2c(Nc3ccccc3)c(-c3ccccn3)nc12 1.35%
C#CCOCCOCCOCCNc1nc(N2CCN(C(=O)[C@H](CCC(=O)O)n3cc(C(N)CC(C)C)nn3)CC2)nc(N2CCN(C(=O)[C@H](Cc3cc4ccccc4[nH]3)n3cc(C(N)CC(C)C)nn3)CC2)n1 (some centres undefined) -4.14%
Cc1ccc(NC(=O)COC(=O)C2CC2(Cl)Cl)cc1C (centres undefined) -12.9%
Cc1nnc(NC(=O)CSc2nnc(CCc3nc4ccccc4[nH]3)n2C)s1 -7.82%
O=[N+]([O-])c1cnc2nc(-c3ccncc3)nn2c1O -42.4%
O=C(Nc1ccc(Cl)cc1)Nc1cnccn1 -9.05%
O=C(NC(=S)Nc1cnc2ccccc2c1)c1ccccc1 -31%
O=C(NCCO)C1CCN(C(=O)c2ccc(-c3ccccc3)cc2)CC1 1.15%
CCCCn1c(SCC(=O)Nc2ccc(OC)cc2)nc2ccc(N3CCOCC3)cc2c1=O 3.59%
O=C(NCCN1CCN(c2ccccc2)CC1)C1CCN(S(=O)(=O)c2cccc3nonc23)CC1 -13.6%
CCCCOc1cccc(NC(=O)CSc2nccn2C)c1 -1.32%
O=C1OC(/C(=C\Nc2ccc(F)cc2F)[N+](=O)[O-])c2ccccc21 (centres undefined) 12.7%
O=C(Nc1ncc(S(=O)(=O)c2ccc([N+](=O)[O-])cc2)s1)c1ccc2ccccc2c1 2.8%
C=CCOn1c(=O)c(C)[n+]([O-])c2ccccc21 -11.9%
COc1ccc(CCNc2cc(N3CCN(C(=O)c4ccc(C)cc4)CC3)ccc2[N+](=O)[O-])cc1OC -0.0165%
Cc1cc(OC(=O)c2ccc(S(=O)(=O)N(C)C)cc2)c([N+](=O)[O-])c(=O)[nH]1 3.59%
O=c1c[n+]([O-])c2ccccc2n1OCc1ccccn1 -0.0678%
Cc1cccc(N2CCN(C(=O)c3cccc(N4C(=O)C5C6C=CC(C6)C5C4=O)c3)CC2)c1C (centres undefined) 4.01%
CC(OC(=O)c1ccncc1)C(=O)Nc1cccc(Cl)c1 (centres undefined) 1.94%
NC(=S)Nc1cccc2[nH]ccc12 -0.789%
CCN1CCc2c(C#N)c(N3CCOCC3)nc(NCCO)c2C1 7.83%
COc1ccc(CNc2ccc(N3CCOCC3)cc2)cc1 1.29% [at 11.5 µM, 0% is enzyme alone, no compound]
C=CCSc1nn2c(=O)c3ccccc3nc2s1 0.315%
O=C(Nc1nnc(-c2ccc3c(c2)CCCC3)o1)c1c(F)cccc1F -11.4%
CCCCn1c(N)c(C(=S)NC(=O)CC(C)(C)C)c(=O)n(C)c1=O -5.96%

Potency, active:
CCn1cc([N+](=O)[O-])c(C(=O)N2N=C(c3ccc(O)c(OC)c3)CC2c2ccccc2O)n1 (centres undefined) 17.8 µM
Cn1c2ccccc2c2nnc(SC3CCOC3=O)nc21 (centres undefined) 14.1 µM
COc1ccccc1NC(=O)C1=C(C)NC(=O)NC1c1ccccc1[N+](=O)[O-] (centres undefined) 25.1 µM
N#C/C(=C/c1ccc(N2CCOCC2)o1)c1ccc(Cl)cc1 1.26 µM
CCCCn1c(SCC(=O)Nc2cc(C)on2)nc2c1c(=O)n(C)c(=O)n2C 20 µM
CCCOc1ccc(OCCn2nc(C(=O)O)c3ccccc3c2=O)cc1 31.6 µM

Potency, inconclusive:
CCSC1(SCC)N=C(N)C2(C#N)C(c3ccc(F)cc3)C12C#N (centres undefined) 14.1 µM [rising, partial curve]
O=C(Nc1ccncc1)c1ccc(S(=O)(=O)Nc2ccccc2)cc1 39.8 µM [rising, single point]
COC(=O)c1ccccc1NC(NC(=O)c1ccco1)C(=O)c1ccccc1 (centres undefined) 7.94 µM [rising, single point]
O=[N+]([O-])c1ccccc1SNc1ccc(Br)cn1 4.47 µM [rising, single point]
CC1Cc2nc(SCC(=O)Nc3nccs3)n(C)c(=O)c2S1 (centres undefined) 31.6 µM [rising, single point]
C=CCOC(=O)CCP(=O)(CCC(=O)OCC=C)c1ccccc1 39.8 µM [rising, single point]
Cn1cnnc1Sc1ccc(/C=C/C(=O)c2ccc(O)cc2)cc1[N+](=O)[O-] 15.8 µM [rising, partial curve]
O=C(CSc1nc(-c2ccc(F)cc2)nc2c1Cc1ccccc1O2)Nc1ccc(C(=O)O)cc1 39.8 µM [rising, single point]
CC(=O)Nc1ccc(C(=O)/C=C/c2ccco2)cc1 10 µM [rising, partial curve]
N/C(Cn1cncn1)=N\OC(=O)c1ccc(Cl)cc1Cl 15.8 µM [rising, partial curve]
CCOc1cc(/C=N/Nc2nc(-c3cccs3)c(NC(C)=O)s2)ccc1O 15.8 µM [rising, partial curve]
CC1=C(C)CS(=O)N(S(=O)(=O)c2ccc(Cl)cc2)C1 (centres undefined) 11.2 µM [rising, partial curve]
CCOC(=O)c1ccc(NC(=O)CN2C(=O)NC3(CCC(C)CC3)C2=O)cc1 (centres undefined) 4.47 µM [rising, single point]
Cc1cc(Br)ccc1SCC(=O)Nc1cccnc1 28.2 µM [rising, single point]
C/C=C\C=C/C(=O)Nc1cccc(C2=NOC3(C2)C[C@@H](C(N)=O)N(C(=O)C2(C)CC2)C3)c1 (some centres undefined) 25.1 µM [rising, partial curve]
CCOC(=O)CNS(=O)(=O)c1ccc2c3c(cccc13)C(=O)N2CC 31.6 µM [rising, single point]
Cc1ccc(S(=O)(=O)NCCOc2nc(N(C)C)nc(N3CCOCC3)n2)cc1 39.8 µM [rising, single point]
Cc1ccc(OCCNS(=O)(=O)c2ccc(N3CCCC3=O)cc2)cc1 39.8 µM [rising, single point]
O=S(=O)(c1ccc2c(c1)OCCO2)N1CCN(c2ncnc3sccc23)CC1 39.8 µM [rising, single point]
Oc1ccc(N=Cc2ccc(OCc3ccccc3)cc2)cc1 14.1 µM [rising, partial curve]
COCCn1c(-c2ccccc2)cnc1SCC(=O)Nc1cccc2ccccc12 6.31 µM [rising, single point]
CO/N=C(\C(=O)N[C@@H]1C(=O)N2C(C(=O)O)=C(COC(N)=O)CS[C@H]12)c1ccco1 7.08 µM [rising, partial curve]
Cc1cccc(N2CCN(C(=O)c3ccc(NS(=O)(=O)c4ccc5[nH]c(=O)[nH]c5c4)cc3)CC2)c1C 11.2 µM [rising, partial curve]
Clc1cccc(-c2nn3c(Cn4cnc5ccccc54)nnc3s2)c1 1.12 µM [rising, full curve]
COc1cc([N+](=O)[O-])cc2sc(NC(C)=O)nc12 10 µM [rising, partial curve]
Cc1ccc(O)c(C(=O)c2cnn(C(=O)COc3ccc(Cl)cc3)c2)c1 39.8 µM [rising, single point]
O=C(CCC(=O)N1CCN(S(=O)(=O)c2cccc(F)c2)CC1)c1cccs1 31.6 µM [rising, single point]
CCN1C(=O)c2ccccc2S(=O)(=O)c2ccc(C(=O)NCc3cccnc3)cc21 28.2 µM [rising, single point]
OC(COc1ccc(-c2ccccc2)cc1)CN1CCOCC1 (centres undefined) 6.31 µM [rising, single point]
COc1ccc(/C=N/Nc2ncc(-c3ccccc3)cn2)c(OC)c1 35.5 µM [rising, single point]
CCOC(=O)c1c(N2C(=O)CC(Sc3ccccc3C(=O)O)C2=O)sc2c1CCCC2 (centres undefined) 28.2 µM [rising, single point]
Clc1cc(Br)ccc1OCCn1ccnc1 14.1 µM [rising, partial curve]
COCCCNS(=O)(=O)c1ccc2c(c1)OCCO2 7.94 µM [rising, single point]
O=S(=O)(c1ccccc1)N1CCN(CC2CC3C=CC2C3)CC1 (centres undefined) 35.5 µM [rising, single point]
Cc1cc(/C=C(\C#N)C(=O)NCc2ccco2)c(C)[nH]1 39.8 µM [rising, single point]
CCC1=Nc2cc(C(=O)NCc3cccnc3)ccc2Sc2ccc(C)cc21 35.5 µM [rising, single point]
O=c1[nH]c(=O)n(CCO)c2nnn(Cc3ccccc3)c12 12.6 µM [rising, partial curve]
O=C(NCCC(c1ccccc1)c1ccco1)c1cccs1 (centres undefined) 39.8 µM [rising, single point]
CCCCCSc1nnc(-c2cc(Br)ccc2N)c(=O)[nH]1 39.8 µM [rising, single point]
Cc1cc2cc3c(cc2nc1SCC(=O)N1CCN(C(=O)c2ccco2)CC1)OCO3 25.1 µM [rising, single point]
CCCCCCCN1CCC(=O)N([C@H](CO)c2ccccc2)CC1 31.6 µM [rising, single point]
